Where two headings read alike, the source gives them in different places. These are yes or no findings as the source states them, for the method shown. Binding seen in cells or lysates may run through a third protein. Some entries that bind do so weakly or less than the wild type. Values belong to the molecule of their own block, whether it stands above or below them.
Tests used:
[1] = biological target: protein arginine deiminase 4 (PAD4) (human (endogenous in neutrophils)) (UniProt Q9UM07); assay: co-IP; lysates of human neutrophils (RIPA lysis buffer; resting, DMSO- or PMA-treated); IP with PAD4, PAD2, NCF1 or NCF2 antibodies coupled to protein G beads, elution with Tris-glycine pH 2.8, immunoblot
[2] = biological target: protein arginine deiminase 2 (PAD2) (human (endogenous in neutrophils)) (UniProt Q9Y2J8); assay: as above
[3] = biological target: protein arginine deiminase 4 (PAD4) (human (endogenous in neutrophils)) (UniProt Q9UM07); assay: condition: only neutrophils treated with BB-Cl-amidine; co-IP; anti-PAD4 immunoprecipitates from neutrophils briefly treated with the PAD inhibitor BB-Cl-amidine; immunoblots for NCF1, NCF2, NCF4
[4] = biological target: protein arginine deiminase 4 (PAD4) (human (endogenous in neutrophils)) (UniProt Q9UM07); assay: condition: only neutrophils treated with 1 µM ionomycin (in medium with 2 mM Ca^2+); co-IP; anti-PAD4 immunoprecipitates from neutrophils treated with 1 µM ionomycin (in medium with 2 mM Ca^2+), anti-NCF1 immunoblot
[5] = biological target: protein arginine deiminase 4 (PAD4) (human (endogenous in neutrophils)) (UniProt Q9UM07); assay: co-IP; anti-PAD4 immunoprecipitates from neutrophils briefly treated with the PAD4 inhibitor GSK484; immunoblots for NCF1, NCF2, NCF4
[6] = biological target: p47^phox (neutrophil cytosol factor 1, NCF1) (human (endogenous in neutrophils)) (UniProt P14598); assay: co-IP; lysates of human neutrophils (RIPA lysis buffer; resting, DMSO- or PMA-treated); IP with PAD4, PAD2, NCF1 or NCF2 antibodies coupled to protein G beads, elution with Tris-glycine pH 2.8, immunoblot
[7] = biological target: p67^phox (neutrophil cytosol factor 2, NCF2) (human (endogenous in neutrophils)) (UniProt P19878); assay: as above
[8] = biological target: protein arginine deiminase 4 (PAD4) (human (endogenous in neutrophils)) (UniProt Q9UM07); assay: as above; remark: listed apart in the source
[9] = biological target: p47^phox (neutrophil cytosol factor 1, NCF1) (human (endogenous in neutrophils)) (UniProt P14598); assay: as above; remark: listed apart in the source

Amino acid sequences for entries named in this document (tags omitted).
UniProt Q9UM07: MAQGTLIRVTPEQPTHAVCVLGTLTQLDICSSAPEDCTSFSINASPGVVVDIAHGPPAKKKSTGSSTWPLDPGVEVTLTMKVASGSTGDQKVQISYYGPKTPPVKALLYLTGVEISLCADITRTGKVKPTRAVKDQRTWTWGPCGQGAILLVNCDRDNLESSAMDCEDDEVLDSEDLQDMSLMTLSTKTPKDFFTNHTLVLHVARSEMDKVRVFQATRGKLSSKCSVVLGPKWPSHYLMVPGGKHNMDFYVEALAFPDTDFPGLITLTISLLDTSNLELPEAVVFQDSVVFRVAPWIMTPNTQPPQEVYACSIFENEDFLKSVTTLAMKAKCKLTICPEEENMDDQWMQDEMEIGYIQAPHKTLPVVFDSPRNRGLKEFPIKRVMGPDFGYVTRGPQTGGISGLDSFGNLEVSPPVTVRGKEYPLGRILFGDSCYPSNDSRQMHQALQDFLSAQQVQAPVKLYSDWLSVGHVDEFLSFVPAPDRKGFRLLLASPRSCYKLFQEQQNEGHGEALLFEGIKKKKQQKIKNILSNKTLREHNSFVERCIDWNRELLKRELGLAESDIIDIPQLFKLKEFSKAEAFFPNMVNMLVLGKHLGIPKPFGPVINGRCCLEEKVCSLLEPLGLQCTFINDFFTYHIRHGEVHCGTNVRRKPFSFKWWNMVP
UniProt Q9Y2J8: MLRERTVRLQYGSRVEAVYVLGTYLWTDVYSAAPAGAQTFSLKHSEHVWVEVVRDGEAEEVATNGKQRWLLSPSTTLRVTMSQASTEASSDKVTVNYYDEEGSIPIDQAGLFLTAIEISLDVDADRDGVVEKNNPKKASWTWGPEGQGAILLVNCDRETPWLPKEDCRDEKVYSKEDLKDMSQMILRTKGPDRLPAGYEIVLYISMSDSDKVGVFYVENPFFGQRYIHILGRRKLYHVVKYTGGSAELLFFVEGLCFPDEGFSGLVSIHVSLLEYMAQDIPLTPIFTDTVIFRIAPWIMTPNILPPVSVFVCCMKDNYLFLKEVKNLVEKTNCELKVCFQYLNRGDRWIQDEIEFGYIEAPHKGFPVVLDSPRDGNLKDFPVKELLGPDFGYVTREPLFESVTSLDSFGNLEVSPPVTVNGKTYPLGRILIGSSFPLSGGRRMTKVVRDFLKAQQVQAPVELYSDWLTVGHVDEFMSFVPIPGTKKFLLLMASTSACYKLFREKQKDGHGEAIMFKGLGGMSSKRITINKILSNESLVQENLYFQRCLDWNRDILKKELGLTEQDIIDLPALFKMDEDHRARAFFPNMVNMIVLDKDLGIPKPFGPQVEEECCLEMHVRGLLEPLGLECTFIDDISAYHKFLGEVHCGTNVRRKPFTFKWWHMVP
UniProt P14598: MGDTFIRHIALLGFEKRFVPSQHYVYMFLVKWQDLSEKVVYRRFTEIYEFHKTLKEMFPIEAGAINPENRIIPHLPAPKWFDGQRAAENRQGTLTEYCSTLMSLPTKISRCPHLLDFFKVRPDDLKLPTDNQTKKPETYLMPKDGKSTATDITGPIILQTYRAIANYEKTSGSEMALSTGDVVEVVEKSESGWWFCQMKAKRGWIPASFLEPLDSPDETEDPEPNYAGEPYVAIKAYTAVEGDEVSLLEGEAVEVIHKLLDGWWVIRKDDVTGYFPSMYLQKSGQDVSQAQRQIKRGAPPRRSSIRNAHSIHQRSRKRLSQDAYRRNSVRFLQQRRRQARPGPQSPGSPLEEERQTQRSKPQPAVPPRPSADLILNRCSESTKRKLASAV
UniProt P19878: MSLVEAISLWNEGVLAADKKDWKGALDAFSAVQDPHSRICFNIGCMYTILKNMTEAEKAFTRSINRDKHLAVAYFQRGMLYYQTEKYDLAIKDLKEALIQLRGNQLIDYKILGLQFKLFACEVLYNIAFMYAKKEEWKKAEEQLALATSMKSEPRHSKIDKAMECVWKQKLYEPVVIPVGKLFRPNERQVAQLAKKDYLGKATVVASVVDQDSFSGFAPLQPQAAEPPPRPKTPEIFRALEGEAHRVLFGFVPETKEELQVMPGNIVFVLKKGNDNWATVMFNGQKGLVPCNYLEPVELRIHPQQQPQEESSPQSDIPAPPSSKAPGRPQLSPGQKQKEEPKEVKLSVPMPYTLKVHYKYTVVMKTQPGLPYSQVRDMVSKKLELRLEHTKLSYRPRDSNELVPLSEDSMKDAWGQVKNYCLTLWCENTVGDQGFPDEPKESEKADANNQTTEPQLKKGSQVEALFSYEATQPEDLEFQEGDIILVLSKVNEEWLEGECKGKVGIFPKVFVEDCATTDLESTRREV

Molecule: p47^phox (neutrophil cytosol factor 1, NCF1) (from UniProt P14598 1-390)
binding [1]: binds | binding [2]: no binding | binding [3]: no binding | binding [4]: no binding | binding [5]: no binding (condition: neutrophils treated with GSK484)

Molecule: protein arginine deiminase 4 (PAD4) (from UniProt Q9UM07 1-663) (enzyme)
binding [6]: binds | binding [7]: binds

B2: gp91 (NADPH oxidase subunit) (protein, UniProt P04839 1-570)
chain: MGNWAVNEGLSIFVILVWLGLNVFLFVWYYRVYDIPPKFFYTRKLLGSALALARAPAACLNFNCMLILLPVCRNLLSFLRGSSACCSTRVRRQLDRNLTFHKMVAWMIALHSAIHTIAHLFNVEWCVNARVNNSDPYSVALSELGDRQNESYLNFARKRIKNPEGGLYLAVTLLAGITGVVITLCLILIITSSTKTIRRSYFEVFWYTHHLFVIFFIGLAIHGAERIVRGQTAESLAVHNITVCEQKISEWGKIKECPIPQFAGNPPMTWKWIVGPMFLYLCERLVRFWRSQQKVVITKVVTHPFKTIELQMKKKGFKMEVGQYIFVKCPKVSKLEWHPFTLTSAPEEDFFSIHIRIVGDWTEGLFNACGCDKQEFQDAWKLPKIAVDGPFGTASEDVFSYEVVMLVGAGIGVTPFASILKSVWYKYCNNATNLKLKKIYFYWLCRDTHAFEWFADLLQLLESQMQERNNAGFLSYNIYLTGWDESQANHFAVHHDEEKDVITGLKQKTLYGRPNWDNEFKTIASQHPNTRIGVFLCGPEALAETLSKQSISNSESGPRGVHFIFNKENF
binding [9]: binds

Further lines, with some results ahead:

binding [1]: binds | binding [2]: no binding | binding [3]: no binding
Molecule: p67^phox (neutrophil cytosol factor 2, NCF2) (from UniProt P19878 1-526)
binding [5]: no binding (condition: neutrophils treated with GSK484)

binding [8]: binds | binding [3]: no binding
B1: NCF4 (protein, UniProt Q15080 1-339)
chain: MAVAQQLRAESDFEQLPDDVAISANIADIEEKRGFTSHFVFVIEVKTKGGSKYLIYRRYRQFHALQSKLEERFGPDSKSSALACTLPTLPAKVYVGVKQEIAEMRIPALNAYMKSLLSLPVWVLMDEDVRIFFYQSPYDSEQVPQALRRLRPRTRKVKSVSPQGNSVDRMAAPRAEALFDFTGNSKLELNFKAGDVIFLLSRINKDWLEGTVRGATGIFPLSFVKILKDFPEEDDPTNWLRCYYYEDTISTIKDIAVEEDLSSTPLLKDLLELTRREFQREDIALNYRDAEGDLVRLLSDEDVALMVRQARGLPSQKRLFPWKLHITQKDNYRVYNTMP
binding [5]: no binding (condition: neutrophils treated with GSK484)
